Experimental data taken from PubChem BioAssay AID1159614 (National Center for Advancing Translational Sciences (NCATS), 2016).
The whole screen tested about 45,000 compounds, of which about 65 (0.1%) were called active. Calls follow the shape of the dose curve; as a rule, active = well fitted activation curve with a large enough effect; inconclusive = small, poorly fitted or top-dose-only effect; inactive = no such curve, though single readings can be large or run the other way. The list shows a part of the results.

biological target: Galactocerebrosidase (Homo sapiens) (UniProt P54803); experiment: A Novel Cell-Based Assay to Identify Small Molecules for B -Galactocerebrosidase; details: 145M-Twi-hGALC-G270D cells (Twitcher mouse brain line with human GALC G270D), HMU-beta-Gal fluorescence, 48 h; series mostly up to 57.5 µM; activation: at the top concentration; also: 0% is about no effect; nearly all actives have a fitted effect of over 65% in size
UniProt P54803, sequence (P54803 whole entry, looked up): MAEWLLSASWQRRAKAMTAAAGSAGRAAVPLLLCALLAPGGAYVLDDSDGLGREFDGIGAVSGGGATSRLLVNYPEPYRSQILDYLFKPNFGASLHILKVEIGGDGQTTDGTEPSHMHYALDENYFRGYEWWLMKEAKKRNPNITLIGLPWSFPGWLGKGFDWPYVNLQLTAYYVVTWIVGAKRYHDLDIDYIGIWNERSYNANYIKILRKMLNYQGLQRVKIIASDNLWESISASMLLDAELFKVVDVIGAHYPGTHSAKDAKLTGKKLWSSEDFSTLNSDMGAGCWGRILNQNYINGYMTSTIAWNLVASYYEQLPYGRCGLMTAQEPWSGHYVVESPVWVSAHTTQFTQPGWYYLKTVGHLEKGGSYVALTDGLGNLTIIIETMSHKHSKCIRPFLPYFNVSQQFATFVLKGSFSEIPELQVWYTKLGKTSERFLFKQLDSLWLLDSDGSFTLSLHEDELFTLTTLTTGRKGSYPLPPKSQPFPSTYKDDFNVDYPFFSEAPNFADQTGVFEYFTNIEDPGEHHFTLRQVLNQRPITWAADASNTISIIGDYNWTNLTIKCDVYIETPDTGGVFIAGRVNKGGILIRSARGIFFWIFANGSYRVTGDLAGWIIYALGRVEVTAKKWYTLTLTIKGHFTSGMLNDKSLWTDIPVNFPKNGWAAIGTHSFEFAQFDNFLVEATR
Procedure, shortened: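 Fluorogenic HMU-b-Gal hydrolysis (0.1 mM final, pH 5.2 citrate-phosphate with 1 mg/mL sodium taurocholate; carbonate stop buffer) measures mutant GALC activity after compound treatment of live 145M-Twi Twitcher brain cells stably carrying human GALC-G270D, with wild-type GALC line alongside; activation sought.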

activation, inactive:
CC(NC(=O)CCCn1c(=O)c2cccn2c2cccnc21)c1ccccc1 (stereo unspecified) -0.681%
CCOc1ccc(-c2nc(C#N)c(NCCCOC)o2)cc1 -16.8%
Cc1coc2c(C)c3oc(=O)c(CCC(=O)NCCc4ccc(Cl)cc4)c(C)c3cc12 -10.9%
COc1ccc(C(C)C)cc1S(=O)(=O)NCCc1c(C)[nH]c2ccc(C)cc12 -13%
CC(C)(C)OC(=O)N1CCC(c2c(C(=O)N3CCc4ccccc4C3)cnn2-c2ccc(F)cc2)CC1 -11.4%
CC1=C(c2ccc(C)c(C)c2)S(=O)(=O)N=C1N1CCC(C(=O)NCc2ccc(C)o2)CC1 -4.16%
Cc1ccccc1OCCn1c(CCNC(=O)C(C)(C)C)nc2ccccc21 -13%
CC(NC(=O)CCSCc1ccccc1F)c1ccccc1 (stereo unspecified) -6.83%
COc1ccc(-c2cc(-c3ccccc3)nc(SCC(=O)CC(=O)OC(C)C)c2C#N)cc1 -12.5%
O=C(c1ccc2c(c1)N(Cc1ccccc1F)C(=O)c1ccccc1S2(=O)=O)N1CCCC1 -12.4%
CCN(CCCNC(=O)c1cc2c(=O)n(CC)c3ccccc3c2s1)c1ccccc1 -24%
CCc1ccc(CNC(=O)CSc2cc(=O)n(C)c3ccc(Cl)cc23)cc1 -12.4%
COc1ccc(OC)c(CNC(=O)Cc2ccc(NC(=O)N3CCCCc4ccccc43)cc2)c1 -14.6%
COCCCNC(=O)c1c(NC(=O)Cc2coc3cc(C)cc(C)c23)sc2c1CCCC2 -19.4%
CCCNC(=O)CSc1nc2nc(C)c(Cc3ccccc3Cl)c(C)n2n1 -7.9%
O=C(CSc1nccn1Cc1ccc(F)cc1)Nc1ccc2c(c1)OCCO2 -15.4%
Cc1ccc(-c2noc(-c3nnn(CC(=O)Nc4cc(C)cc(C)c4)c3N)n2)cc1 -6.91%
CCN(CC)S(=O)(=O)c1cc(-c2onc(C)c2C)ccc1OC -11.4%
COc1ccc(CCCc2nnc(SCC(=O)Nc3ccc(C)cc3C)o2)cc1 -7.5%
O=C(NCC(c1cccnc1)N1CCc2ccccc21)c1cccc(C(F)(F)F)c1 (stereo unspecified) -14.9%
Cc1cc(F)ccc1NCc1ccccc1-c1nnc(-c2ccccc2Cl)o1 -11.3%
COc1ccc(C(=O)N(Cc2cc(OC)c(OC)c(OC)c2)CC2CCCO2)cc1 (stereo unspecified) -3.45%
O=C(NCc1cccc(Cl)c1)C1CCN(C(=O)c2sccc2-n2cccc2)CC1 -2.76%
CCc1ccc(C(=O)c2cn(CC(=O)Nc3ccc(OC)cc3OC)c3ccc(CC)cc3c2=O)cc1 -15.7%
CC(=O)N1CCC(N(C(=O)Nc2c(F)cccc2F)C(C)C)CC1 -18.3%
Cc1ccc(N(C)C(=O)c2cnc(N3CCOCC3)c3ccccc23)cc1C -2.41%
COc1cccc(C(=O)Nc2cccc(C(=O)OCc3cc(=O)n4nc(C(C)C)sc4n3)c2)c1 -9.57%
CSc1ccc(C2c3c(-c4ccccc4O)n[nH]c3C(=O)N2Cc2ccncc2)cc1 (stereo unspecified) -12.5%
Cc1cccc2c(=O)cc(CSc3ccccc3NC(=O)c3cccc(Cl)c3)[nH]c12 -11.9%
CCCCn1cc2c(c1-c1ccc(Br)cc1)c(=O)n(C)c(=O)n2C -10.4%
CCOc1ccc(-c2cc3c(=O)n(Cc4nc(-c5ccc(OCC)c(OC)c5)oc4C)ccn3n2)cc1Cl 5.77%
Cc1ccc2nc(CSc3nnc(NC(=O)C(C)C)s3)cc(=O)n2c1 -7.33%
O=c1c2sc3ccccc3c2n(Cc2cccc(Cl)c2)c(=O)n1Cc1ccccc1 0.0435%
CCCN1CCN(c2nnc(-n3cccc3C(=O)Nc3ccccc3C(F)(F)F)s2)CC1 -14.1%
COc1cc(NC(=O)NCCc2c(C)nn(C)c2C)cc(OC)c1OC 4.17%
CCOc1ccc(OCC)c(NC(=O)c2cnn(-c3ccc(F)cc3)c2-n2cccc2)c1 -16.3%
CCc1ccc(-n2nc(C)c3c(C)cc(=O)n(CC(=O)Nc4cc(Cl)ccc4OC)c32)cc1 -16%
Cc1cccc(N2C(=O)CSC23C(=O)N(C)c2ccccc23)c1 (stereo unspecified) 0.0447%
Cc1cccc(OCC(=O)Nc2c(C(=O)Nc3ccc(F)cc3)oc3ccccc23)c1 -8.15%
COc1ccc(NCc2cc3ccc(OC)cc3n(CC(=O)Nc3ccc(C)c(C)c3)c2=O)cc1 -9.75%
Cc1cccc(C(=O)NCCc2nc3ccccc3n2CCC(C)C)c1 -10.2%
CC(=O)Nc1ccc(S(=O)(=O)NCCc2csc3nc(-c4ccc(Cl)cc4)nn23)cc1 -13.2%
CC(C)(C)OC(=O)N1CCC(c2c(C(=O)N3CCN(c4cccc(Cl)c4)CC3)cnn2-c2cccc(Cl)c2)CC1 -22.6%
CCC1CN(C(=O)NCc2ccc(F)cc2)c2cc(C)ccc2O1 (stereo unspecified) -10.2%
CCOC(=O)C1CCN(C(=O)Cn2nc(C)n3c(cc4c(OC)cccc43)c2=O)CC1 7.04%
COc1cccc(C(c2sc3nc(-c4ccco4)nn3c2O)N2CCC(C)CC2)c1 (stereo unspecified) -8.62%
O=C(CSc1ccnc(=O)[nH]1)NCc1ccc(F)cc1 -12.9%
CCc1ccc(NC(=O)C2CCCN(S(=O)(=O)c3ccc4[nH]c(=O)ccc4c3)C2)cc1 (stereo unspecified) -0.392%
COc1ccc(OC)c(CCNC(=O)c2ccc3c(c2)N(Cc2ccccc2)CCS3)c1 -2.8%
COC(=O)c1sccc1S(=O)(=O)N1CCN(c2cccc(C)c2)C(C)C1 (stereo unspecified) -1.53%
Cc1cccc(N(C)S(=O)(=O)c2nnc(NC(=O)C(C)Oc3ccccc3)s2)c1 (stereo unspecified) -2.45%
CN1C(=O)c2ccccc2Sc2ccc(NC(=O)Cc3ccc(Cl)cc3)cc21 -9.11%
O=C(NCc1ccc(Cl)cc1)c1ccc2c(c1)nnn2C1CCCC1 -14.4%
CCCCc1ccc(NC(=O)Cn2cnc3c(oc4ccccc43)c2=O)cc1 -15.1%
Cc1ccc(-n2cc(-c3ccccc3)c3c(N4CCC(C)CC4)ncnc32)cc1Cl -14.8%
COc1ccc(C)cc1NC(=O)CSc1nc(=O)n(Cc2ccco2)c2c1CCC2 0.357%
O=C(NCc1ccccc1)C1CCN(c2ncnc3c2nc2n3CCCCC2)CC1 -11.9%
CCOC(=O)c1cccc(NC(=O)C2COc3ccc(OC)cc3C2)c1 (stereo unspecified) -3.45%
Cc1ccc(CCNC(=O)C2CC(=O)N(CCc3ccc(C)cc3)C2)cc1 (stereo unspecified) -14.8%
CCOC(=O)c1cnc2c(C)cc(C)cc2c1NCCN1CCOCC1 -24.2%
O=C(Nc1ccccc1OCc1cc(=O)n2ccccc2n1)Nc1ccccc1C(F)(F)F -4.9%
Cc1nc2nc(NCc3ccccc3Cl)[nH]n2c(=O)c1Cc1ccccc1 -22.2%
Cc1ccccc1NC(=O)CSc1nc2c(oc3ccccc32)c(=O)n1Cc1ccco1 6.43%
Cc1ccc(C)c(OCc2nc3ccccc3n2C)c1 -19%
CCCSC1=NC2(CCN(C(=O)NC3CCCCC3)CC2)N=C1c1ccc(C)cc1 -15.6%
Cc1cc(C)cc(N(CC(=O)Nc2c(C)cc(C)cc2C)S(=O)(=O)c2c(C)nn(C)c2C)c1 4.37%
COc1ccc(C(=O)Nc2nc3c(s2)Cc2c(Br)ccc(OC)c2-3)cc1OC 0.937%
Cc1ccc(Cn2c(CN3CCC(C(=O)O)CC3)cc3ccccc32)cc1 2%
CCc1ccc(NC(=O)CSc2nnc(CC)c(CC)n2)cc1 -13.3%
CCN(CC)S(=O)(=O)c1cc(-c2ccc(=O)n(C(C)C(=O)Nc3cccc(C#N)c3)n2)ccc1C (stereo unspecified) -9.38%
CN(CC(=O)Nc1ccc(F)cc1F)S(=O)(=O)c1cccc2nsnc12 -10.7%
COc1ccc(-c2noc(CSc3nnc(Cc4ccccc4)n3-c3ccc(F)cc3)n2)cc1 -16.1%
CCN(CC)CCCNC(=O)c1sc2nc3n(c(=O)c2c1C)CCCCC3 -12.7%
CCOC(=O)c1[nH]c2c(c1Cc1ccccc1)C(=O)CC(c1ccc(C(C)(C)C)cc1)C2 (stereo unspecified) -43.8%
CCOC(=O)C1CCN(C(=O)c2cnn(-c3ccc(F)cc3)c2-n2cccc2)CC1 5.98%
COc1cc(C2c3c(-c4c(C)cc(C)cc4O)n[nH]c3C(=O)N2Cc2ccco2)cc(OC)c1OC (stereo unspecified) -6.64%
CCOC(=O)C(C)Sc1nnc2cc(C)c3ccccc3n12 (stereo unspecified) -11.6%
COc1ccc2oc(-c3cccc(NC(=O)c4cc([N+](=O)[O-])ccc4N4CCOCC4)c3)nc2c1 -14.6%
CC(C)NC(=O)C1CCCN(c2ncnc3onc(-c4ccc(F)cc4)c23)C1 (stereo unspecified) -8.02%
CCOc1ccccc1NC(=O)CCS(=O)(=O)c1ccc2c(c1)oc(=O)n2C -22.2%
CCOc1cc(-c2nnc(SCC(=O)NC3CCCCC3)nc2-c2ccc(OC)c(OCC)c2)ccc1OC -17.3%
COc1ccc(CNC(=O)CCCn2ccc3cc(S(=O)(=O)N4CCCC4)ccc32)cc1 -15.1%
Cc1ccc(-n2nc(C(=O)N(C)c3ccc(C)c(C)c3)c3c4ccccc4n(C)c3c2=O)cc1 -33.9%
COc1ccc2c(CNCCc3ccco3)c(C(=O)O)n(Cc3ccc(C)cc3)c2c1 -9.88%
COc1ccc(Nc2ncc3c(n2)CCN(Cc2sccc2C)C3)c(OC)c1 -10.7%
O=C(Cn1ncc2c3ccccc3n(Cc3ccccc3)c2c1=O)NCc1ccccn1 -8.76%
Cc1ccc(-n2ncc3c(NCCCN(C)C)ncnc32)cc1Cl -15.9%
COc1ccc(C(CNC(=O)c2oc3cc(Br)ccc3c2C)N2CCCCC2)cc1 (stereo unspecified) -10.3%
O=[N+]([O-])c1ccc(S(=O)(=O)N2CCn3cccc3C2c2ccc(Br)cc2)cc1 (stereo unspecified) 0.437%
Cc1cc(=O)n(CC(=O)Nc2ccc(Cl)c(Cl)c2)c(-n2nc(C)cc2C)n1 -32.7%
CCOc1ccc(CNC(=O)C2CCCN(c3nn4cc(-c5ccc(OC)cc5)nc4s3)C2)cc1 (stereo unspecified) -28.5%
Cc1cccc(NC(=O)CCCn2nc(C)c3c(C)n(-c4ccccc4)nc3c2=O)c1C -16.8%
COc1ccc(NC(=O)CC2C(=O)N(c3ccccc3)C(=O)N2CCc2sccc2C)cc1 (stereo unspecified) -12.3%
CCOC(=O)CN1C(=O)N(c2ccc(C)c(C)c2)S(=O)(=O)c2ccccc21 -10.2%
Cc1ccc(CN2CCC(CNC(=O)c3cnn(-c4ccc(C)cc4)c3C3CCN(C(=O)OC(C)(C)C)CC3)CC2)cc1 14.1%
Cc1ccc(S(=O)(=O)N(CC(=O)Nc2cccnc2)c2cc(Cl)ccc2C)cc1 -2.81%
